Results as given in the supplement of paper PMC3334620.
The full ranking holds about 33,000 sequences; the median of “E-score (-0.5 to 0.5)” is about -0.054, and the highest 2% start at about 0.39. This is one part of the list.

Target: Ylr278c (UniProt Q05854)
Assay: PBM E-score (8-mer binding enrichment) (E-score (-0.5 to 0.5)); higher = stronger / more preferred TF binding; most listed sequences are background and not binding sites
Conditions: protein concentration: 200 nM; construct: GST-DNA-binding domain
Method: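 Universal 'all 10-mer' protein binding microarrays (Agilent AMADID 015681) probed with GST-tagged S. cerevisiae TFs (full-length or DBD) made by in vitro transcription/translation (PURExpress), about 100-200 nM. Bound TF was detected with fluorescent anti-GST. Each ungapped 8-mer (which stands for itself and its reverse complement) is scored by the PBM enrichment score (E-score), a modified Wilcoxon-Mann-Whitney statistic from -0.5 to +0.5, computed with the Universal PBM Analysis Suite. Scale: above 0.35 generally sequence-specific binding.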

Row | Sequence | PBM E-score
1 | CTCGGATA | 0.215
2 | ATGGGGTC | 0.0764
3 | TGAGGTAA | -0.129
4 | CGTAAACC | -0.0113
5 | CGAGGGCC | 0.0992
6 | AAAGGAGG | -0.188
7 | CAATAATC | 0.113
8 | ATGATCAT | -0.153
9 | GATACACC | 0.162
10 | AGGCCGGA | 0.419
11 | ACGAACGT | -0.16
12 | CATAGACG | -0.0684
13 | GAAGTCTC | -0.0274
14 | CGGAAACA | 0.371
15 | CGTACCAG | -0.0399
16 | AGCCGTCA | 0.0508
17 | TTGGACAA | -0.165
18 | ATGTACAT | -0.0958
19 | AACCATGG | -0.0811
20 | AGCCACGG | -0.0203
21 | ATGGTAAT | -0.0733
22 | AGATCGTA | -0.16
23 | ACGCACGC | 0.264
24 | CGTAGCCA | -0.247
25 | CAGTGCAG | -0.207

Row | Sequence | PBM E-score
26 | CTAGGTGA | -0.262
27 | GCGCTTGA | 0.0827
28 | ACTGAAGG | -0.0961
29 | AAACCTGA | -0.0847
30 | ATATTACA | 0.0258
31 | AATATAAA | 0.218
32 | AGTCTAGC | -0.16
33 | GACATCCC | 0.276
34 | CTTGGTAA | -0.192
35 | CGGTTGGC | 0.119
36 | GGCAGAAC | 0.0664
37 | GAATCGTC | -0.0978
38 | CTCAACAA | -0.0985
39 | ATTCGAGG | -0.131
40 | ATCTTTGG | -0.113
41 | GATCCTAA | -0.339
42 | CCAGAGGG | -0.0435
43 | AGATATGG | -0.0654
44 | AAAGCCAA | -0.123
45 | CCTGTAAA | -0.246
46 | CCCTGAAA | -0.193
47 | GATCGGGC | 0.184
48 | CCACGAGC | 0.183
49 | ACTTTTAA | -0.158
50 | AGTTTCCC | 0.0739

Row | Sequence | PBM E-score
51 | CGCGAAGA | 0.171
52 | ACTGCGGA | 0.312
53 | ACCGCGCT | 0.138
54 | AGGAACGA | -0.155
55 | CCGACTGC | 0.244
56 | ACTCAGCT | -0.0555
57 | ATCTGCAA | -0.325
58 | ACTCTCGC | 0.0203
59 | CAGACTTC | -0.306
60 | GCAGACAA | -0.176
61 | AGCACGCC | -0.0283
62 | AGGAGGTA | -0.0558
63 | AGACCCAC | -0.00095
64 | ATTTTAGA | -0.0601
65 | GGTCCAAA | 0.0394
66 | ATGGGTTA | -0.165
67 | GGCCCGAA | 0.242
68 | AGAGAGAT | -0.115
69 | CCGCTTCA | 0.184
70 | GCCACCGA | -0.073
71 | AGACCGAC | 0.227
72 | AGCACTGA | -0.123
73 | ACGTTATC | -0.00576
74 | AACAGCCT | -0.141
75 | ATCCTGAC | -0.122

Row | Sequence | PBM E-score
76 | CCCAGGGA | -0.218
77 | CGAAATCC | 0.292
78 | TGGAGTAA | -0.105
79 | CGCTAACA | -0.0636
80 | TCTTGCAA | 0.108
81 | ATATTTTA | -0.0845
82 | CGAGTATA | -0.0728
83 | ACATATGC | -0.336
84 | ATCAGTAG | -0.213
85 | ATCCGACC | 0.234
86 | ACTGCGCA | 0.128
87 | AATTACTG | -0.0745
88 | ACCCCATC | -0.0967
89 | ACAGTTGA | -0.168
90 | CATGGACC | -0.125
91 | AGGTAAAG | 0.0761
92 | CCCATAAC | -0.00113
93 | AGTTTATA | 0.131
94 | ATGGCGTC | -0.101
95 | AGCTTCCG | 0.24
96 | CCATGTCG | 0.027
97 | CGAATTAA | 0.02
98 | AAACGTGC | -0.116
99 | ACAAGCCC | -0.197
100 | CCGGACCA | 0.369

Row | Sequence | PBM E-score
101 | ACTTGCGA | -0.0128
102 | AAGTATAT | -0.0709
103 | AGCCGGAG | 0.455
104 | AGGATCGA | -0.0864
105 | ACAGGCAT | -0.229
106 | CCTGAACC | -0.239
107 | GTATACAC | -0.133
108 | GGCAGCCC | 0.0656
109 | CCATGTCA | -0.273
110 | GAAGGCAC | 0.0422
111 | CCTTGGAC | -0.158
112 | CTTAGTGC | -0.0721
113 | GGGGACAC | -0.15
114 | AGCAAGCG | 0.175
115 | GTTGCGCA | -0.0321
116 | GTGTCCGA | 0.374
117 | AAGACCTT | -0.207
118 | ATTCCGTC | 0.362
119 | TGTCCAAA | -0.0727
120 | AGGAGGAT | -0.188
121 | CACCGGGC | 0.304
122 | GGGGGTGA | -0.147
123 | AACCCACT | 0.0973
124 | AAGCCTAC | -0.296
125 | CCCGCTTC | 0.223

Row | Sequence | PBM E-score
126 | GTTAAAAA | -0.11
127 | ATCAATTC | 0.015
128 | ACCAGCCT | -0.188
129 | GCTTGTCC | 0.112
130 | CCAGCGAG | -0.121
131 | CTTGGAAA | -0.0475
132 | CACGACCA | -0.274
133 | CTACCTGC | 0.151
134 | ATCCGAGA | 0.299
135 | AGGTATAG | -0.185
136 | GCGTAGGA | 0.0939
137 | CTGAACAC | -0.0895
138 | AGCCATCC | -0.0598
139 | AGCTGGGA | -0.099
140 | CACAGCCA | -0.209
141 | AGGCCGTC | 0.0267
142 | GAGTACCC | 0.0132
143 | CGCCCAGC | 0.0441
144 | GCAACGCC | 0.0378
145 | ATATTAAG | -0.077
146 | AAAACTTT | -0.088
147 | AACGGCCA | 0.131
148 | CACTGGTC | -0.265
149 | AAATGACC | -0.00492
150 | CGGTTACC | 0.149

Row | Sequence | PBM E-score
151 | GCGTCAAA | -0.11
152 | ACACGCGT | 0.0184
153 | AGTTGCTC | -0.108
154 | CGAAACGC | 0.0471
155 | AGTAGCGG | 0.217
156 | GAATGCCA | -0.0408
157 | GGCCTAAA | -0.0667
158 | ACAGACAG | -0.0656
159 | ACCAGTGG | -0.197
160 | ACTGTCGA | -0.202
161 | GACGTCGA | -0.089
162 | ATCCTTTC | -0.137
163 | GGCGGGGA | 0.315
164 | CCGATCTA | 0.219
165 | ACAGTGGT | -0.308
166 | TCGCGCGA | 0.187
167 | AGAACTAG | -0.232
168 | ATTGATCC | 0.282
169 | TAACGTTA | 0.0259
170 | CGAATACC | 0.155
171 | AGATCCAA | -0.0826
172 | CAAGTGCG | 0.0989
